Data as given in PubChem BioAssay AID588855 (National Center for Advancing Translational Sciences (NCATS), 2011).
Out of some 410,000 compounds screened, about 5,000 (1.2%) were called active. Inconclusive means that the source gave no clear call. Such entries were picked first, then a sample of the others. Calls come from the whole dose curve; as a rule, active = well fitted inhibition curve with a large enough effect; inconclusive = small, poorly fitted or top-dose-only effect; inactive = no such curve, though single readings can be large or run the other way. Potencies beside an inconclusive call are fits to weak or partial responses and may not hold up.

Assay: qHTS for Inhibitors of TGF-b; note: nearly all actives have a fitted effect of over 65% in size
Conditions: HepG2 CAGA-GFP TGF-b/SMAD3 reporter, GFP fluorescence, 18 h, TGF-beta stimulated, 500 pg/mL final; series mostly up to 46.1 µM
Procedure, shortened: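 Inhibition of TGF-beta-driven CAGA-GFP reporter expression in HEPG2 cells is measured by cellular GFP fluorescence after 18 h stimulation with 500 pg/mL recombinant TGF-beta in 1% FBS medium at 37 degrees C.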
Potency is the fitted concentration of half-maximal effect; tags give direction and shape of the fitted curve.

Structure (SMILES) | Potency
CCn1c(SCC(=O)Nc2ccccc2)nc2nc3c(cc2c1=O)COC(C)(C)C3 | inactive
CCOC(=O)c1cc2c(=O)n3cccc(C)c3nc2n(Cc2ccco2)c1=NC(=O)c1ccc(C)cc1 | inactive
Cc1c(C(=O)NC(C)c2ccncc2)oc2ccccc12 (stereo not drawn) | inconclusive: 8.91 µM [inhibitor, partial curve, poor fit]
Cc1ccc(C(=O)NCCCNc2ccc(C(F)(F)F)cc2[N+](=O)[O-])cc1 | inconclusive: 17.8 µM [inhibitor, partial curve, poor fit]
O=C(Cc1ccc(OCc2ccccn2)cc1)NO | inactive
C[C@@H](NC(=O)Cn1cnc2c(NCc3ccccc3)ncnc21)c1cccc2ccccc12 | inconclusive: 11.2 µM [inhibitor, single point]
CCCCNC(=O)[C@@H]1CC=C[C@@H]2CCN(C3CC3)C(=O)[C@@H]21 | inconclusive: 22.4 µM [inhibitor, single point]
COc1ccc(-c2[nH]ncc2-c2ccc3c(c2)OCCO3)c(O)c1 | inconclusive: 25.1 µM [inhibitor, partial curve, poor fit]
Clc1ccc(-c2csc(N/N=C/c3cccnc3)n2)c(Cl)c1 | inactive
CC(CCc1ccccc1)NC(=O)c1ccc2nc(N3CCOCC3)sc2c1 (stereo not drawn) | inactive
CN(Cc1ccccc1)c1ccc(-c2nc(-c3ccncc3)no2)cc1[N+](=O)[O-] | inactive
O=C(COC(=O)/C=C/c1cc(Br)ccc1F)NC1CC1 | inactive
Cc1cn2c(=O)c(S(=O)(=O)Nc3ccc(F)cc3F)c(C)nc2s1 | inactive
C#CCN1c2ccccc2Sc2cccnc21 | inconclusive: 7.94 µM [inhibitor, partial curve]
O=C(NCCC1=CCCCC1)C1CCN(C(=O)N2CCOc3ccc(Cl)cc32)CC1 | inconclusive: 22.4 µM [inhibitor, single point]
COC(=O)C1CCN(C(=O)C2CCC(=O)N(CCc3cccc(F)c3)C2)CC1 (stereo not drawn) | inactive
Cc1noc2ncnc(Sc3ccc(Br)cc3)c12 | inconclusive: 35.5 µM [inhibitor, partial curve, poor fit]
CC(C)C[C@H]1CN=C(Nc2ccccc2)N1CCC(C)c1ccccc1 (stereo partly drawn) | inconclusive: 17.8 µM [inhibitor, single point]
CCCCCn1nc(C)c(/C=N/NC(=O)c2ccoc2C)c1C | inconclusive: 35.5 µM [inhibitor, single point]
Cc1nn(C)c(C)c1S(=O)(=O)N(CC(=O)NCCCN1CCC(C)CC1)c1ccc(C(C)C)cc1 | inactive
COc1ccc2c(c1)CC/C(=C\c1ccc(OC)c(Cn3cccn3)c1)C2=O | inconclusive: 35.5 µM [inhibitor, single point]
Cc1cccc(CSc2cccc3cccnc23)c1 | inconclusive: 5.01 µM [inhibitor, full curve, poor fit]
Cc1nc(-c2ccccc2)sc1C(=O)/C=C/c1ccccc1 | active: 10 µM

Structure (SMILES) | Potency
O=C(c1cc(-c2ccncc2)nc2ccccc12)N1CCN(Cc2ccccc2)CC1 | inactive
Oc1ccc(C[C@H]2CN([C@@H](Cc3cccc(O)c3)CN3CCC[C@@H]3CN3C(=S)NC[C@@H]3Cc3ccccc3)C(=S)N2CC2CCCCC2)cc1 | active: 5.01 µM
N#Cc1ccccc1CSC1=NCCS1 | inactive
Cc1ccc(S(=O)(=O)c2nnn3c2nc(NCc2cccs2)c2sccc23)cc1 | inactive
CCn1nc(C)c2c(-c3ccccc3)cc(=O)n(C(C)C(=O)NCc3ccccc3OC)c21 (stereo not drawn) | active: 20 µM
N#CC(Cc1ccccc1)(Cc1ccccc1)C(=O)NN | inactive
CN(Cc1cccc2cnccc12)C(=O)c1cc(COc2ccc(F)cc2Cl)on1 | inconclusive: 22.4 µM [inhibitor, partial curve, poor fit]
Cn1ccnc1SCC(=O)Nc1nc2c(F)c(F)c(F)cc2s1 | inactive
Cc1ccc2nc(N(CCN3CCOCC3)C(=O)CCS(=O)(=O)c3ccccc3)sc2c1 | inconclusive: 17.8 µM [inhibitor, single point]
COc1ccccc1-c1csc(C(O)(c2ccccc2)C(F)(F)F)n1 (stereo not drawn) | inconclusive: 35.5 µM [inhibitor, single point]
CN(C)CCNc1nc2sc3c(c2c(=O)n1-c1ccc(F)cc1)CCCCC3 | inconclusive: 14.1 µM [inhibitor, single point]
C=CCN(C)CCCCCCOc1ccc(C(=O)c2ccc(Br)cc2)c(F)c1 | inconclusive: 35.5 µM [inhibitor, single point]
COc1ccc(-c2nsc3c(N4CCN(S(=O)(=O)c5ccccc5F)CC4)ncnc23)cc1 | inconclusive: 35.5 µM [inhibitor, single point]
COc1ccc2c(c1)Sc1ccccc1N2 | inconclusive: 5.01 µM [inhibitor, full curve]
CN(C(=S)NC(=O)Cc1ccccc1)c1ccccc1 | inconclusive: 11.2 µM [inhibitor, partial curve]
O=S(=O)(c1ccccc1)c1nc(-c2ccc(F)cc2)oc1NCC1CCCO1 (stereo not drawn) | inconclusive: 35.5 µM [inhibitor, partial curve, poor fit]
CC(C)Cc1ccc(CN2C(C(C)C)C(=O)N(Cc3cn(CCC4OCCO4)nn3)CCS2(=O)=O)cc1 (stereo not drawn) | inconclusive: 20 µM [inhibitor, single point]
COc1cc(C2(c3ccc(O)c(OC)c3)C(=O)Nc3c(Br)cc(Br)cc32)ccc1O | active: 25.1 µM
Fc1ccc(-n2ncc3c(Nc4cccc(Cl)c4)ncnc32)cc1 | inconclusive: 25.1 µM [inhibitor, single point]
Cc1ccccc1-c1nc(CN2CCCC(C(=O)NCc3cccnc3)C2)c(C)o1 (stereo not drawn) | inactive
O=C(O[C@@H]1OC2COC(=O)c3cc(O)c(O)c(O)c3-c3c(cc(O)c(O)c3O)C(=O)O[C@@H]([C@H]1O)[C@@H]2O)c1cc(O)c(O)c(O)c1 | inconclusive: 25.1 µM [inhibitor, partial curve, poor fit]
Cc1cccc(OCCC(=O)Nc2ccc(F)c(F)c2)c1 | inconclusive: 35.5 µM [inhibitor, single point]
CO/N=C(\Cn1ncc(NC2CCCCC2)c(Br)c1=O)c1ccc(Cl)cc1 | inconclusive: 22.4 µM [inhibitor, single point]

Structure (SMILES) | Potency
COc1cccc(/C=N/NC(N)=S)c1OCc1cccc(Cl)c1 | inconclusive: 14.1 µM [inhibitor, partial curve, poor fit]
CC(=O)N1N=C(c2ccc(C)cc2)OC1c1ccc(C)cc1 (stereo not drawn) | inconclusive: 35.5 µM [inhibitor, single point]
O=C(Nc1csc([N+](=O)[O-])c1)Nc1ccccc1Cl | active: 12.6 µM
CCOc1cccc2sc(N(CCN(C)C)C(=O)c3cc4ccccc4cc3OC)nc12 | inconclusive: 25.1 µM [inhibitor, single point]
O=C(/C=C/c1ccccc1)N1CCN(c2c(Cl)cccc2[N+](=O)[O-])CC1 | inconclusive: 35.5 µM [inhibitor, single point]
COc1cccc(NC(=O)CN(C)C(=O)c2cccnc2Nc2cccc(C(F)(F)F)c2)c1 | inconclusive: 35.5 µM [inhibitor, single point]
c1ccc(OCCN2CCN(C(c3ccccc3)c3ccccc3)CC2)cc1 | inconclusive: 22.4 µM [inhibitor, single point]
O=c1c2ccccc2c(-c2ccc(O)cc2)nn1-c1cccc(C(F)(F)F)c1 | inconclusive: 10 µM [inhibitor, partial curve, poor fit]
Cc1nc(-c2ccc(S(=O)(=O)NCC3CCN(C(=O)OC(C)(C)C)CC3)s2)cs1 | inconclusive: 15.8 µM [inhibitor, single point]
Cc1ccc(C2CC2c2n[nH]c(=S)n2-c2cccc(Cl)c2)cc1 (stereo not drawn) | inconclusive: 28.2 µM [inhibitor, single point]
CCOc1ccc(N(CC(=O)NCc2ccc(OC)cc2)S(C)(=O)=O)cc1 | inactive
O=S(=O)(Nc1ccc(O)c(Sc2nc3ccccc3s2)c1)c1ccc(Cl)cc1 | inconclusive: 0.891 µM [inhibitor, full curve, poor fit]
CN(CC(=O)Nc1cccc(Cl)c1)C1=NS(=O)(=O)c2ccccc21 | inconclusive: 3.55 µM [inhibitor, single point]
C=CCOC(=O)C1=C(C)NC(=S)C(C#N)(CC=C)C1c1ccccc1Cl (stereo not drawn) | active: 11.2 µM
CCOc1cc(-c2c(C#N)c(N)nc3c2CCCC3)ccc1O | inactive
Cc1ccc(CNC(=O)CCC(=O)N2CC3CCCN3c3ccccc32)cc1 (stereo not drawn) | inconclusive: 3.98 µM [inhibitor, partial curve, poor fit]
S=C1SCN(CCc2ccccc2)CN1CCc1ccccc1 | inconclusive: 35.5 µM [inhibitor, single point]
Cc1c(C(=O)Cc2ccccc2)n(C)c2ccccc12 | inconclusive: 35.5 µM [inhibitor, single point]
Cc1ccc(-n2cnc3scc(-c4cccs4)c3c2=O)cc1 | inconclusive: 35.5 µM [inhibitor, partial curve, poor fit]
CCc1ccccc1NC(=O)CSc1nc2n[nH]c(C)c2c(=N)n1-c1ccc(OC)cc1 | inconclusive: 25.1 µM [inhibitor, single point]
CCOc1ccc(NC(=O)C2CCN(C(=O)N3CC(C)Oc4ccc(Cl)cc43)CC2)cc1 (stereo not drawn) | inconclusive: 15.8 µM [inhibitor, single point]
Cc1cc(C)c(S(=O)(=O)NCCn2ccc3ccccc32)c(C)c1 | inconclusive: 35.5 µM [inhibitor, single point]
